Laboratory results from PubChem BioAssay AID1745849 (National Center for Advancing Translational Sciences (NCATS), 2022).
Out of some 2,100 compounds screened, about 320 (15%) were called active. The shares of active, inactive and inconclusive entries below differ from those in the screen. The call rests on the fitted dose curve; in most records, active means well fitted cell-killing curve with a large enough effect; inconclusive means small, poorly fitted or top-dose-only effect, or effect the other way; inactive means flat fitted curve, though single readings scatter. Potencies beside an inconclusive call are fits to weak or partial responses and may not hold up.

assay: Viability Counterscreen for CMV-Luciferase Assay of Inhibitors of ATXN expression; settings: HEK-293 CMV-luciferase cells viability, protease fluorescence, 24 h; activity change, negative = cytotoxicity: at the top concentration; further: nearly all actives have a fitted effect of over 55% in size
Outline: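 HEK-293 cells stably expressing CMV-luciferase, treated 24 hr at 37 °C with compounds (several concentrations). Viability by Gly-Phe-AFC fluorescence (25 uM final, 30 min); reporter by SteadyGlo luminescence after 5 min.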
On the % scale 0 is the no-effect control and ±100 the full control effect; potency means the concentration at half of the fitted maximal effect; tags describe the fitted curve by direction and shape.

SMILES | Potency | activity change, negative = cytotoxicity
O=C(Nc1ccc(OC(F)(F)F)cc1)N1CCN(c2ccnc3cc(Cl)ccc23)CC1 | inconclusive: 39.8 µM [cytotoxic, single point] | 
CN(C)c1ccc(CNCCC(Cc2ccccc2)c2ccco2)cc1 (centres undefined) | inconclusive: 20 µM [cytotoxic, partial curve, poor fit] | 
O=C(NN=C(c1ccccc1)c1ccccn1)c1ccccc1 | active: 3.16 µM | 
O=C(COc1nsnc1N1CCOCC1)N/N=C/c1ccccc1O | inconclusive: 7.94 µM [cytotoxic, full curve, poor fit] | 
Cc1nc2ccccc2c2oc(C(=O)Nc3ccc(C(C)C)cc3)cc12 | inconclusive: 31.6 µM [cytotoxic, single point] | 
COC(=O)c1c(NC(=O)/C=C/C(=O)O)sc(C)c1-c1ccc(C(C)C)cc1 | active: 20 µM | 
CC1(C)Cc2ccccc2C2=NNC(=O)C2=N1 | active: 25.1 µM | 
COC(=O)c1ccccc1S(=O)(=O)NNC(=O)Nc1ccccc1 |  | inactive: 7.74%
CC1(C)C(C=C(Cl)Cl)C1C(=O)Nc1ccc([N+](=O)[O-])cc1 (centres undefined) | inconclusive: 20 µM [cytotoxic, partial curve, poor fit] | 
COc1ccc(NC(=O)CSc2n[nH]c(-c3ccccn3)n2)cc1 | inconclusive: 25.1 µM [cytotoxic, single point] | 
Cc1cc(C)n(-c2nc(NCCN(C)C)c3c4c(sc3n2)COC(C)(C)C4)n1 | inconclusive: 3.98 µM [cytotoxic, partial curve, poor fit] | 
COc1cc(C#Cc2c(-c3cncn3C)n(C)c3ccc(-c4cnc(N5CCOCC5)nc4)cc23)cc(OC)c1 |  | inactive: -23.6%
O=C(Nc1ccc(Cl)cc1)Nc1ccc(N2CCCC2)c(S(=O)(=O)Nc2ccccc2Cl)c1 | active: 7.94 µM | 
COc1ccc(N(C(=O)c2snc(C(N)=O)c2N)C(C(=O)NCc2ccc(F)cc2)c2ccc(O)cc2)cc1 (centres undefined) | inconclusive: 28.2 µM [cytotoxic, single point] | 
CCC(C)Sc1cc(C(F)(F)F)c(C(=O)Nc2ccc(Cl)cc2)cn1 (centres undefined) | inconclusive: 5.01 µM [cytotoxic, single point] | 
O=C(/C=C/c1ccco1)Oc1cc(Br)cc(/C=N/NC(=O)c2ccccc2O)c1 | inconclusive: 0.447 µM [cytotoxic, full curve, poor fit] | 
COc1ccc(/C=C/C(=O)Nc2cccc(S(=O)(=O)N3CCCC3)c2)cc1OC |  | inactive: 17.8%
CCCCC(=O)NC(c1ccc(N(C)C)cc1)c1ccc2cccnc2c1O (centres undefined) | inconclusive: 1.78 µM [cytotoxic, full curve, poor fit] | 
Cc1ccc(SC2=C(Sc3ccc(C)cc3)C(=O)c3ccccc3C2=O)cc1 | inconclusive: 28.2 µM [rising, partial curve] | 
COc1ccccc1/C=C1\SC(=S)N(CCC(=O)NC2=NCCS2)C1=O |  | inactive: -4.03% [at 57.5 µM]
Cc1ccc(-n2c(-c3ccccc3)c[n+]3c2CCc2ccccc2-3)c(C)c1 | inconclusive: 3.55 µM [cytotoxic, single point] | 
Nc1nc(N)c2cc(Sc3ccc4ccccc4c3)ccc2n1 | inconclusive: 20 µM [cytotoxic, single point] | 
Cc1ccc(Nc2c(-c3ccccn3)nc3cccc(C)n23)cc1 | active: 3.98 µM | 

SMILES | Potency | activity change, negative = cytotoxicity
O=C(NNC(=O)c1csc(-c2cnccc2C(F)(F)F)n1)c1ccc(C(F)(F)F)cc1 | inconclusive: 3.16 µM [cytotoxic, partial curve] | 
Cc1nc(-c2ccc(F)cc2)c(CC(=O)N(C)CC(=O)Nc2ccc(Cl)c(C(F)(F)F)c2)s1 | inconclusive: 31.6 µM [cytotoxic, single point] | 
CC1(C)Cc2ccccc2C(NNC(=O)c2ccccn2)=N1 | inconclusive: 31.6 µM [cytotoxic, single point] | 
Cc1ccc(C(NC(=O)C2CCN(CCOc3ccc(Cl)cc3Cl)CC2)c2ccccn2)cc1 (centres undefined) | inconclusive: 17.8 µM [cytotoxic, partial curve, poor fit] | 
Cc1cccc(OCC(=O)Nc2ccc3c(c2)nc(CCN2CCN(c4ccccn4)CC2)n3C)c1 | inconclusive: 15.8 µM [cytotoxic, single point] | 
O=C(O)CSc1cc(NS(=O)(=O)c2ccc(Cl)cc2)c2ccccc2c1O |  | inactive: -8.84% [at 57.5 µM]
CC(=O)Nc1sc2c(c1-c1nc3ccccc3s1)CN(C(C)C)CC2 | inconclusive: 7.08 µM [cytotoxic, single point] | 
Cc1noc(C)c1CSCC(=O)Nc1nc(-c2ccc(F)c(F)c2)cs1 | inconclusive: 39.8 µM [cytotoxic, single point] | 
O=C(Nc1cccc(Br)c1)c1ccc(Cl)c(S(=O)(=O)N2CCOCC2)c1 |  | inactive: -10.5%
O=C(CSc1ccc2c(c1)OCCO2)Nc1ccc(Cl)cn1 | inconclusive: 39.8 µM [cytotoxic, single point] | 
COc1ccc(Br)cc1C(=O)NC(=S)Nc1ccc(CN2CCOCC2)cc1 |  | inactive: -23.8% [at 57.5 µM]
OCCNc1c2ccccc2nc2ccccc12 |  | inactive: 24.1% [at 57.5 µM]
CC1(C)Cc2c(ccc3ccccc23)C2=C(C(=O)N3CCCC3)C(=O)C(=O)N21 |  | inactive: 11.3% [at 57.5 µM]
Cc1[nH]n2c(=O)cc(C(C)(C)C)nc2c1-c1ccccc1 | active: 11.2 µM | 
O=C(COc1ccc(F)cc1)N/N=C/c1cccc2cccnc12 | inconclusive: 0.794 µM [cytotoxic, full curve] | 
CN(C)CCCNc1nc2cc(-c3ccc(F)cc3)sc2c(=O)n1C | inconclusive: 10 µM [cytotoxic, partial curve] | 
O=C(Nc1c(Cl)cccc1Cl)Oc1cccc2cccnc12 | inconclusive: 39.8 µM [rising, single point] | 
COc1ccc(C(=O)N/N=C/c2cc(Br)ccc2O)cc1OC | inconclusive: 3.55 µM [cytotoxic, single point] | 
Cc1ccc(CN(C)C(=O)CN2C(=O)NC(c3ccccc3)(c3ccccc3)C2=O)c(C)c1 |  | inactive: -27.6%
O=C(c1ccc(S(=O)(=O)c2cccc(Cl)c2)c([N+](=O)[O-])c1)N1CCN(Cc2ccccc2)CC1 | active: 15.8 µM | 
CCOC(=O)C1CCN(c2cc3c(cc2NC(=O)c2ccccc2OCC)n(C)c(=O)n3C)CC1 |  | inactive: -23.5% [at 57.5 µM]
Nc1nonc1-n1nnc(C(=O)N/N=C/c2ccccc2O)c1CN1CCCC1 | inconclusive: 10 µM [cytotoxic, partial curve, poor fit] | 
CC(NC1=CC(=O)c2cccnc2C1=O)C(O)c1ccccc1 (centres undefined) | active: 17.8 µM | 

SMILES | Potency | activity change, negative = cytotoxicity
CC1CCN(Cc2c(C(=O)N/N=C/c3cc(Cl)ccc3O)nnn2-c2nonc2N)CC1 |  | inactive: -22.8%
CC(C)(C)c1ccc(CC(=O)N2CCC2(C)C(=O)Nc2cnc3ccccc3c2)cc1 (centres undefined) |  | inactive: -1.12%
COc1ccc(C)cc1Nc1nc(N)c2cc(OC)c(OC)cc2n1 |  | inactive: -4.73%
O=C(Nc1ccc(Cl)c(Cl)c1)Nc1nnc(CSc2ccccc2)s1 | inconclusive: 3.16 µM [cytotoxic, partial curve] | 
COc1ccc(O)c(/C=N/NC(=O)CCC(=O)Nc2cccc(C)c2)c1 |  | inactive: 16.1% [at 57.5 µM]
O=C(N/N=C\c1cc(Cl)ccc1O)c1ccc(S(=O)(=O)N2CCCCC2)cc1 |  | inactive: 9.18%
O=C(NC(c1ccc(Cl)cc1)c1cc(Cl)c2cccnc2c1O)c1cccnc1 (centres undefined) | inconclusive: 39.8 µM [rising, single point] | 
Cc1ccc2[nH]c(O)c(N=NC(=O)C3CC3c3ccccc3)c2c1Br (centres undefined) |  | inactive: -3.8%
O=[N+]([O-])c1cc(Cl)cc(/C=N\Nc2ccccn2)c1O | inconclusive: 6.31 µM [cytotoxic, partial curve, poor fit] | 
Cn1ncc2c(Nc3cccc(Cl)c3)nc(Nc3cccc(Cl)c3)nc21 |  | inactive: -16.3% [at 57.5 µM]
COc1ccc(CNCC(O)(c2ccc(Cl)cc2)c2ccc(Cl)cc2)cc1OC | inconclusive: 5.62 µM [cytotoxic, single point] | 
Cc1ccc(/C=C2\SC(=S)N(CCCC(=O)Nc3ccccc3C(=O)O)C2=O)cc1 | inconclusive: 3.16 µM [cytotoxic, single point] | 
Cc1cccc(Nc2c3c(nc4ccccc24)CCC3)c1 | inconclusive: 31.6 µM [cytotoxic, partial curve, poor fit] | 
Cc1cc(N/N=C/c2ccc(O)cc2O)nc(-n2nc(C)cc2C)n1 | active: 10 µM | 
Cc1c(N=C2N=C(NC(=O)Nc3ccc(Cl)cc3)c3ccccc32)c(=O)n(-c2ccccc2)n1C | inconclusive: 39.8 µM [rising, single point] | 
CCN(CC)CCNC(=O)c1ccc(NC(=O)Cc2cccc3ccccc23)cc1 |  | inactive: -15.6%
C[n+]1c2cc(N)ccc2cc2ccc(N)cc21 | inconclusive: 35.5 µM [rising, partial curve] | 
Cc1ccc(C2CC(=O)Nc3c2ccc2ccccc32)cc1[N+](=O)[O-] (centres undefined) | inconclusive: 31.6 µM [cytotoxic, single point] | 
CCN(CC)CCNC(=O)C1CCN(S(=O)(=O)c2c(C)noc2/C=C/c2ccccc2F)CC1 | inconclusive: 2.51 µM [cytotoxic, partial curve] | 
O=C(NN=C1CCCC1)c1cc(-c2ccc(F)cc2)nc2ccccc12 |  | inactive: 15.3% [at 57.5 µM]
COc1cc2c(cc1OC)C(C)N(C(=O)c1cc3c(s1)-c1ccccc1OC3)CC2 (centres undefined) | inconclusive: 20 µM [cytotoxic, partial curve, poor fit] | 
CC(=O)NC(=C(Cl)Cl)S(=O)(=O)c1ccccc1 | inconclusive: 17.8 µM [cytotoxic, partial curve, poor fit] | 
O=C(CSc1n[nH]c(-c2ccccn2)n1)Nc1ccc(Cl)cc1 | inconclusive: 4.47 µM [cytotoxic, partial curve] | 
